Data reported in ChEMBL document CHEMBL3272345, “Specificity in enzyme inhibition. 3. Synthesis of 5-substituted 2,2-dimethyl-4-imidazolidinones as inhibitors of tyrosine decarboxylase and histidine decarboxylase” (1976).

Test system: Clostridium
Experiment: Inhibition of Clostridium welchii histidine decarboxylase assessed as 14CO2 production using L-histidine as substrate at 5 mM after 20 mins by scintillation counting analysis

| SMILES | inhibition |
| --- | --- |
| CC1(C)NC(=O)[C@H](Cc2c[nH]c3ccccc23)N1 | 2% |
| CC1(C)NC(=O)[C@H](Cc2cnc[nH]2)N1 | 44% |
